Target: the molecule itself
Assay: AUC

B1: BirA R119A variant, bio-5'-AMP bound (holoBirA^R119A) (enzyme)
chain: not shown
Kd: 1100 µM
